Assay results: PMC4336329 (PLoS ONE, 2015)
In all, about 310,000 compounds went through this assay and about 14,000 (4.5%) showed an effect of 50% or more. The effect is printed as a negative number. The list shows a part of the results.

molecular target: human ether-à-go-go-related gene (hERG) potassium channel (human, UniProt Q12809); assay: primary screen, population patch clamp on CHO cells stably expressing hERG
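Note: peak tail current of the secondary pulse compared with the same well before compound.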

human ether-à-go-go-related gene (hERG) potassium channel, sequence (Q12809 whole entry, looked up): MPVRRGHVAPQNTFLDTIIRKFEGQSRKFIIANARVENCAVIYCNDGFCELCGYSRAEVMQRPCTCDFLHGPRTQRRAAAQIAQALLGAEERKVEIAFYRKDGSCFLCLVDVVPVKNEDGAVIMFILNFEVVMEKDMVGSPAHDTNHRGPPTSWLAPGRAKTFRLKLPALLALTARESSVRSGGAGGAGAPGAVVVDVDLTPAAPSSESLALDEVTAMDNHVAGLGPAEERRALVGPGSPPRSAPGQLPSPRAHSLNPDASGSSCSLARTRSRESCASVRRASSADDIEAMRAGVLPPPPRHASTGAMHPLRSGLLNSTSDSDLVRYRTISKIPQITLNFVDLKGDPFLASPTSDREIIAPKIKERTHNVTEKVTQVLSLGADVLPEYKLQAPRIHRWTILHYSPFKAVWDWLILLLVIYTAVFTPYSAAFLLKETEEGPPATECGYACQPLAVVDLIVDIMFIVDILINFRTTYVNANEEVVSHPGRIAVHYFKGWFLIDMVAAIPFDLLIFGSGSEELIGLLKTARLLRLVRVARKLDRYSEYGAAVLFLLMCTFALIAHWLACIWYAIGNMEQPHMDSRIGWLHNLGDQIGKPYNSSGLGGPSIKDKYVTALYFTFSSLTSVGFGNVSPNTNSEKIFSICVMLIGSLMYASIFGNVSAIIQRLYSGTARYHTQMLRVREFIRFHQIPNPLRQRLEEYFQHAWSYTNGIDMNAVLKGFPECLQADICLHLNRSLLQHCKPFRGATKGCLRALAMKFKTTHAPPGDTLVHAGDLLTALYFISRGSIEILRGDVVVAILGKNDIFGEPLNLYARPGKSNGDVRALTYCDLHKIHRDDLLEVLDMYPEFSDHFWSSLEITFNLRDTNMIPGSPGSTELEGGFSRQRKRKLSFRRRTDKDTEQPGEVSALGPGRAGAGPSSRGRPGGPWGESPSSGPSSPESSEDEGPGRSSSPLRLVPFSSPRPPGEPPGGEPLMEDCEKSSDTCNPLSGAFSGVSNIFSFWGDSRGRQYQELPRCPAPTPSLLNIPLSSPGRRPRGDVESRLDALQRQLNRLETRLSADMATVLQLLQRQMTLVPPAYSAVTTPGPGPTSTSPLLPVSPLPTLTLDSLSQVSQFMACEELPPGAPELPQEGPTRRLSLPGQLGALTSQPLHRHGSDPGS

Row | SMILES | hERG current change (%, negative = inhibition) at 10uM [%]
1 | Cc1nc(SCC(=O)NC(=O)NCCC(C)C)c2c(-c3cccs3)csc2n1 | 22.4
2 | O=C(NCC(=O)N1CCN(S(=O)(=O)c2cccc(F)c2)CC1)c1ccc(Br)o1 | -32
3 | CC(C)CN1C=C2C(=O)C(C)(OC(=O)C3CCCC3)C(=O)C=C2C=C1c1ccsc1 (stereo not shown) | -0.438
4 | COc1cc(C(=O)NCc2nnc(SCC(=O)c3ccccc3)o2)cc(OC)c1OC | -7.43
5 | COCCNC(=O)c1ccc(NS(=O)(=O)c2cc(C)ccc2C)cc1 | -9.06
6 | O=C(Nc1cc(C(F)(F)F)ccc1N1CCOCC1)c1cnccn1 | -2.15
7 | Cc1cccc(N2C(=O)NC(=O)/C(=C/c3ccc(-c4ccc(C(=O)O)c(Cl)c4)o3)C2=O)c1 | 17.3
8 | COC(=O)c1cn(CC(=O)NC2CCCCC2)c2ccccc12 | 2.59
9 | O=C(NC1CCCCC1)C(c1ccccc1)N(Cc1cccnc1)C(=O)c1csnn1 (stereo not shown) | 3.92
10 | CCOC(=O)c1c(-n2c(C)cc(C=O)c2C)sc2c1CCCC2 | -5.53
11 | CC1(C)CN2C(=S)N(c3ccccc3)C(c3ccccc3)N2C1 (stereo not shown) | -6.53
12 | COCCn1nnnc1C(c1ccccc1)N1CCN(Cc2ccc3c(c2)OCO3)CC1.Cl (stereo not shown) | -21.6
13 | O=C(CCSc1ccccc1)Nc1nc2c(s1)CCCC2 | 0.748
14 | COc1ccc(C(=O)Nn2c(SCC(=O)c3ccc(Cl)cc3)nc3ccccc3c2=O)cc1 | 2.5
15 | N#Cc1ccc(S(=O)(=O)N2CCC(C(=O)N3CCN(Cc4ccc5c(c4)OCO5)CC3)CC2)cc1 | -74.2
16 | Cc1ccc(S(=O)(=O)NCC(C)n2nc(C)cc2C)cc1 (stereo not shown) | 16.9
17 | CCN(CC)c1ccc(C(=S)N2CCN(c3ccccc3)CC2)cc1 | 4.69
18 | COC(=O)c1cc(S(=O)(=O)NCCN2CCOCC2)cn1C | 2.78
19 | COc1ccc(CCN2CC(C(=O)N3CCSCC3)CCC2=O)cc1 (stereo not shown) | -1.72
20 | Cc1cccc(OC(=O)N2CCOCC2)c1 | 6.87
21 | COc1cccc(/C=N/Nc2nc(N3CCCC3)nc(N3CCCC3)n2)c1O | 12.7
22 | C[C@H](NC(=O)c1nc[nH]c1C(=O)N1CCc2ccccc2C1)C(=O)OCc1ccccc1 | -13.1

Row | SMILES | hERG current change (%, negative = inhibition) at 10uM [%]
23 | Cc1ccccc1S(=O)(=O)Cc1ccc(C(=O)N2CC(C)CC(C)C2)o1 (stereo not shown) | -23
24 | Cc1ccc(C(=O)NCC(=O)OCC(=O)Nc2ncc(C(F)(F)F)cc2Cl)cc1 | -13.3
25 | O=C(CSc1nnc(-c2ccccc2)n1-c1ccc(Cl)cc1)NC1CCS(=O)(=O)C1 (stereo not shown) | -15.2
26 | CCC(=O)N1CCc2cc(S(=O)(=O)NCCC(=O)NCc3ccccc3Cl)ccc21 | -1.91
27 | O=C(NCC1CCCO1)c1ccc(-c2cccc(C(F)(F)F)c2)o1 (stereo not shown) | -16.2
28 | CCCn1c(SCC(=O)Nc2ccc(NC(=O)CC)cc2)nc2c1c(=O)n(C)c(=O)n2C | 15.7
29 | O=C1c2ccccc2C(=O)N1Cc1ccccn1 | 22.9
30 | COc1ccc(NC(=O)N2CCCC2C(=O)Nc2ccccc2)cc1 (stereo not shown) | 10.9
31 | O=C(Cc1ccc(Cl)cc1Cl)Nc1ccncc1 | -0.174
32 | Cc1cccc(C(=O)NC(=S)Nc2ccc(N3CCOCC3)cc2)c1 | 14.1
33 | CCC(NC(=O)Cc1c(C)c2ccc(OC)c(C)c2oc1=O)C(=O)NC(Cc1ccc(Cl)cc1)C(=O)O (stereo not shown) | -0.235
34 | Cc1cccc(N2CC(C(=O)Nc3nnc(SCC(=O)Nc4nccs4)s3)CC2=O)c1 (stereo not shown) | 5.52
35 | Cc1cc(-c2nnc(SCC(=O)Nc3ccccc3Cl)n2C)no1 | -5.89
36 | Cc1ccc2c(cnn2C(=O)CCC(=O)NC2CCCC2)c1 | -10.3
37 | COC(=O)[C@@]1(Cc2ccc(F)cc2)[C@H]2c3cc(C(=O)N(C)C)n(Cc4nc5ccccc5[nH]4)c3C[C@H]2CN1C(=O)c1ccccc1 | 1.29
38 | CN(C)C(CN=C1NS(=O)(=O)c2ccccc21)c1ccco1 (stereo not shown) | 9.69
39 | CC(C)(C)c1ccc(C(=O)NC(=S)Nc2sc3c(c2C#N)CCC3)cc1 | 5.03
40 | Cc1cc(Nc2ncc(Cl)cc2Cl)n(-c2ccccc2C)n1 | -13.8
41 | O=C(Nc1cccc(Cl)c1)Nc1ccc2c(c1)OCO2 | -1.46
42 | CC1CCCC(NC(=O)CNC(=S)N2CC3CC(C2)c2cccc(=O)n2C3)C1C (stereo not shown) | 23.3
43 | Cc1cc(C)n2cc(-c3ccc(Cl)cc3)c(C(=O)O)c2n1 | -50.9
